Laboratory results reported in the supplement of paper PMC11741623.
The list shows a part of the results. Interaction screen of human proteins with wild-type SARS-CoV-2 proteins by split-DHFR complementation in yeast, 1 µg/mL methotrexate. Value = fitness of the pair (three or more lineages) minus that of the viral protein without a human partner, on a scale set by negative (0) and fused positive (1) controls, mean of up to three cultures; higher = more likely to interact. Active = false discovery rate below 0.05 (one-sided t-test) in at least one culture. Nearly all pairs are not hits, and differences among them are mostly noise (correlation between cultures about 0.3); most hits were seen in one culture only. Human sequences are the Swiss-Prot entries looked up by gene name; the clone may be another isoform. NSP2 values were corrected by the authors for a growth advantage. Listed are human proteins with a hit and a random twelfth of the others.

How the values were obtained:
Assay in all cases: yeast fitness gain over the viral ORF with no human partner (scaled fitness); higher = more likely to interact
SARS-CoV-2 E = molecular target: SARS-CoV-2 E
Description: (§1)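 Split mouse DHFR complementation in pooled diploid yeast: human ORFeome clones carry one fragment and viral ORFs the other; barcoded lineages compete in 1 µg/mL methotrexate and fitness is read by barcode sequencing in up to three cultures.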

SARS-CoV-2 M = molecular target: SARS-CoV-2 M
Description: as §1

SARS-CoV-2 NSP1 = molecular target: SARS-CoV-2 NSP1
Description: as §1

SARS-CoV-2 NSP10 = molecular target: SARS-CoV-2 NSP10
Description: as §1

SARS-CoV-2 NSP12 = molecular target: SARS-CoV-2 NSP12
Description: as §1

SARS-CoV-2 NSP13 = molecular target: SARS-CoV-2 NSP13
Description: as §1

SARS-CoV-2 NSP14 = molecular target: SARS-CoV-2 NSP14
Description: as §1

SARS-CoV-2 NSP16 = molecular target: SARS-CoV-2 NSP16
Description: as §1

SARS-CoV-2 NSP2 = molecular target: SARS-CoV-2 NSP2
Description: as §1

SARS-CoV-2 NSP4 = molecular target: SARS-CoV-2 NSP4
Description: as §1

SARS-CoV-2 NSP5 = molecular target: SARS-CoV-2 NSP5
Description: as §1

SARS-CoV-2 NSP6 = molecular target: SARS-CoV-2 NSP6
Description: as §1

SARS-CoV-2 NSP7 = molecular target: SARS-CoV-2 NSP7
Description: as §1

SARS-CoV-2 NSP8 = molecular target: SARS-CoV-2 NSP8
Description: as §1

SARS-CoV-2 NSP9 = molecular target: SARS-CoV-2 NSP9
Description: as §1

SARS-CoV-2 ORF10 = molecular target: SARS-CoV-2 ORF10
Description: as §1

SARS-CoV-2 ORF3A = molecular target: SARS-CoV-2 ORF3A
Description: as §1

SARS-CoV-2 ORF3B = molecular target: SARS-CoV-2 ORF3B
Description: as §1

SARS-CoV-2 ORF6 = molecular target: SARS-CoV-2 ORF6
Description: as §1

SARS-CoV-2 ORF7A = molecular target: SARS-CoV-2 ORF7A
Description: as §1

SARS-CoV-2 ORF7B = molecular target: SARS-CoV-2 ORF7B
Description: as §1

SARS-CoV-2 ORF8 = molecular target: SARS-CoV-2 ORF8
Description: as §1

SARS-CoV-2 ORF9B = molecular target: SARS-CoV-2 ORF9B
Description: as §1

[1] = molecular target: SARS-CoV-2 ORF9Bwu (the 73-codon ORF)
Description: as §1

SARS-CoV-2 S = molecular target: SARS-CoV-2 S
Description: as §1

SARS-CoV-2 N = molecular target: SARS-CoV-2 N
Description: as §1

SARS-CoV-2 NSP15 = molecular target: SARS-CoV-2 NSP15
Description: as §1

Measured: yeast fitness gain

B1: PCOLCE2, Q9UKZ9 (protein)
chain: MRGANAWAPLCLLLAAATQLSRQQSPERPVFTCGGILTGESGFIGSEGFPGVYPPNSKCTWKITVPEGKVVVLNFRFIDLESDNLCRYDFVDVYNGHANGQRIGRFCGTFRPGALVSSGNKMMVQMISDANTAGNGFMAMFSAAEPNERGDQYCGGLLDRPSGSFKTPNWPDRDYPAGVTCVWHIVAPKNQLIELKFEKFDVERDNYCRYDYVAVFNGGEVNDARRIGKYCGDSPPAPIVSERNELLIQFLSDLSLTADGFIGHYIFRPKKLPTTTEQPVTTTFPVTTGLKPTVALCQQKCRRTGTLEGNYCSSDFVLAGTVITTITRDGSLHATVSIINIYKEGNLAIQQAGKNMSARLTVVCKQCPLLRRGLNYIIMGQVGEDGRGKIMPNSFIMMFKTKNQKLLDALKNKQC
inactive: SARS-CoV-2 E 0.118 | SARS-CoV-2 M -0.0314 | SARS-CoV-2 NSP1 = 0.0118 | SARS-CoV-2 NSP10 = 0.0157 | SARS-CoV-2 NSP12 = 0.039 | SARS-CoV-2 NSP13 = 0.0121 | SARS-CoV-2 NSP14 = -0.231 | SARS-CoV-2 NSP16 = -0.096 | SARS-CoV-2 NSP2 = -0.132 | SARS-CoV-2 NSP4 = 0.107 | SARS-CoV-2 NSP5 = -0.0431 | SARS-CoV-2 NSP6 = -0.00213 | SARS-CoV-2 NSP7 = 0.0528 | SARS-CoV-2 NSP8 = 0.0216 | SARS-CoV-2 NSP9 = 0.0755 | SARS-CoV-2 ORF10 = -0.0448 | SARS-CoV-2 ORF3A 0.00654 | SARS-CoV-2 ORF3B 0.0251 | SARS-CoV-2 ORF6 = -0.0195 | SARS-CoV-2 ORF7A -0.175 | SARS-CoV-2 ORF7B 0.0609 | SARS-CoV-2 ORF8 = 0.0101 | SARS-CoV-2 ORF9B -0.0768 | [1] -0.0141 | SARS-CoV-2 S 0.0868

B2: SHANK2-AS3, Q9BTD1 (protein)
chain: MAQLPSAQMPAPRTQPDLILVHPVLALSGRAPSILCSVPWDACELLATAMWWKTRILWGVFLISRTRPPAPMQILILTLDPSEGEVCCKKRKPGQTGRNRVRMTTATCKPGGEASGETSPGTP
inactive: SARS-CoV-2 E 0.0765 | SARS-CoV-2 M 0.0466 | SARS-CoV-2 N 0.0417 | SARS-CoV-2 NSP1 = 0.0289 | SARS-CoV-2 NSP10 = 0.0166 | SARS-CoV-2 NSP12 = -0.0243 | SARS-CoV-2 NSP13 = -0.0164 | SARS-CoV-2 NSP14 = 0.0296 | SARS-CoV-2 NSP15 = -0.0322 | SARS-CoV-2 NSP16 = -0.00314 | SARS-CoV-2 NSP2 = -0.102 | SARS-CoV-2 NSP4 = 0.111 | SARS-CoV-2 NSP5 = 0.0325 | SARS-CoV-2 NSP6 = 0.0173 | SARS-CoV-2 NSP7 = 0.00929 | SARS-CoV-2 NSP8 = -0.0127 | SARS-CoV-2 NSP9 = -0.0442 | SARS-CoV-2 ORF10 = 0.0483 | SARS-CoV-2 ORF3A 0.0997 | SARS-CoV-2 ORF3B 0.0358 | SARS-CoV-2 ORF6 = 0.0305 | SARS-CoV-2 ORF7A 0.0152 | SARS-CoV-2 ORF7B -0.0553 | SARS-CoV-2 ORF8 = -0.0312 | SARS-CoV-2 ORF9B 0.0537 | [1] 0.032 | SARS-CoV-2 S -0.0181

B3: FAM174A, Q8TBP5 (protein)
chain: MKASQCCCCLSHLLASVLLLLLLPELSGPLAVLLQAAEAAPGLGPPDPRPRTLPPLPPGPTPAQQPGRGLAEAAGPRGSEGGNGSNPVAGLETDDHGGKAGEGSVGGGLAVSPNPGDKPMTQRALTVLMVVSGAVLVYFVVRTVRMRRRNRKTRRYGVLDTNIENMELTPLEQDDEDDDNTLFDANHPRR
inactive: SARS-CoV-2 E -0.0255 | SARS-CoV-2 M 0.0297 | SARS-CoV-2 N 0.0937 | SARS-CoV-2 NSP1 = 0.0209 | SARS-CoV-2 NSP10 = -0.0219 | SARS-CoV-2 NSP12 = 0.0351 | SARS-CoV-2 NSP13 = -0.00381 | SARS-CoV-2 NSP14 = 0.0164 | SARS-CoV-2 NSP15 = -0.0271 | SARS-CoV-2 NSP16 = -0.116 | SARS-CoV-2 NSP2 = -0.109 | SARS-CoV-2 NSP4 = 0.00336 | SARS-CoV-2 NSP5 = 0.0464 | SARS-CoV-2 NSP6 = 0.0575 | SARS-CoV-2 NSP7 = 0.0474 | SARS-CoV-2 NSP8 = 0.0711 | SARS-CoV-2 NSP9 = -0.0504 | SARS-CoV-2 ORF10 = 0.0297 | SARS-CoV-2 ORF3A -0.0377 | SARS-CoV-2 ORF3B 0.034 | SARS-CoV-2 ORF6 = 0.0276 | SARS-CoV-2 ORF7A 0.0258 | SARS-CoV-2 ORF7B 0.0617 | SARS-CoV-2 ORF8 = 0.0362 | SARS-CoV-2 ORF9B 0.0134 | [1] 0.079 | SARS-CoV-2 S 0.0721

B4: HSFY1, Q96LI6 (protein)
chain: MAHVSSETQDVSPKDELTASEASTRSPLCEHTFPGDSDLRSMIEEHAFQVLSQGSLLESPSYTVCVSEPDKDDDFLSLNFPRKLWKIVESDQFKSISWDENGTCIVINEELFKKEILETKAPYRIFQTDAIKSFVRQLNLYGFSKIQQNFQRSAFLATFLSEEKESSVLSKLKFYYNPNFKRGYPQLLVRVKRRIGVKNASPISTLFNEDFNKKHFRAGANMENHNSALAAEASEESLFSASKNLNMPLTRESSVRQIIANSSVPIRSGFPPPSPSTSVGPSEQIATDQHAILNQLTTIHMHSHSTYMQARGHIVNFITTTTSQYHIISPLQNGYFGLTVEPSAVPTRYPLVSVNEAPYRNMLPAGNPWLQMPTIADRSAAPHSRLALQPSPLDKYHPNYN
inactive: SARS-CoV-2 E -0.0146 | SARS-CoV-2 NSP9 = 0.00544 | SARS-CoV-2 ORF3A 0.0316
